In PubChem BioAssay AID686978 (National Center for Advancing Translational Sciences (NCATS), 2013):
Values joined by “and” are separate entries in the source; they are usually repeats but may differ in a detail not shown here. Equal values may be shown once. The campaign covered roughly 420,000 compounds. About 64,000 (15%) were called active. This list was built around the results that the source calls inconclusive (neither active nor inactive); the mix of calls is not that of the screen. Calls follow the shape of the dose curve; as a rule, active = well fitted inhibition curve with a large enough effect; inconclusive = small, poorly fitted or top-dose-only effect; inactive = flat fitted curve, though single readings scatter. A potency beside an inconclusive call is a rough fit, not a confirmed value.

Assay: qHTS for Inhibitors of human tyrosyl-DNA phosphodiesterase 1 (TDP1): qHTS in cells in absence of CPT; also: nearly all actives have a fitted effect of over 55% in size
Conditions: DT40 Tdp1-/- hTDP1 cells, no CPT, ATP luminescence, 48 h; activity change, negative = growth inhibition: at 46.2 µM (top of the series) unless noted
Procedure, shortened: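 Chicken DT40 Tdp1-/- cells stably complemented with human TDP1 were seeded at 400 cells/well with DMSO in place of 20 nM camptothecin. After compound pinning, cells grew at least 48 hr at 37 °C; viability read by CellTiter-Glo luminescence.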
% is scaled to controls: 0 for no effect and ±100 for the full control effect; potency is read from the fitted curve at half-maximal effect; tags tell the direction and shape of the fitted curve.

Row | Structure (SMILES) | Potency | activity change, negative = growth inhibition
1 | CCn1cc(C(=O)NN)c(=O)c2cc(F)c(N3CCN(C)CC3)cc21 | inactive | –
2 | CC(C)c1cc(-c2cc(C(=O)Nc3ccccc3)on2)nc(NC2CCCC2)n1 | inconclusive: 20.6 µM [inhibitor, single point] | –
3 | COc1ccc(CN(C)C(=O)CCC(=O)N2CCN(S(=O)(=O)c3ccc(Cl)cc3)CC2)c(OC)c1 | inconclusive: 16.4 µM [inhibitor, partial curve] | –
4 | N/C(=N\OC(=O)c1cc(-c2ccccc2)nc2ccccc12)c1cccnc1 | inconclusive: 18.4 µM [inhibitor, single point] | –
5 | O=S(=O)(c1ccccc1)c1cnc(-c2ccccc2)nc1N1CCCCC1 | inconclusive: 25.9 µM [inhibitor, single point] | –
6 | O=C(NC1CCCN(C2Cc3ccccc3C2)C1)c1ccc(F)cc1Cl (stereo not drawn) | inactive | –
7 | CNC(=O)N(C1=NCC(C)(C)S1)c1ccc(F)c(Cl)c1 | active: 18.4 µM | –
8 | CCCCCCC(=O)NNC(=O)CC(=O)Nc1ccccc1C(=O)O | inactive | –
9 | C=CCC1(CC=C)CCCN1C(=O)CC1C(=O)NCCN1Cc1cccc(OC)c1 (stereo not drawn) | inconclusive: 25.9 µM [inhibitor, single point] | –
10 | C[C@@H]1CN([C@@H](C)CO)C(=O)CCCn2cc(nn2)CO[C@H]1CN(C)C(=O)CCCN(C)C | inactive | –
11 | Cc1ccc(OCCn2nnc3sc4c(c3c2=O)CCC(C)C4)cc1 (stereo not drawn) | inactive | –
12 | COc1ccc(-c2nnc3c4ccccc4c(C)nn23)cc1 | active: 18.4 µM | –
13 | CSc1cccc(NS(=O)(=O)c2cn(C)c(C)n2)c1 | inconclusive: 2.91 µM [inhibitor, single point] | –
14 | CCC(=O)N1CCc2cc(S(=O)(=O)Nc3ccc4c(c3)OCCO4)ccc21 | active: 5.17 µM | –
15 | N#Cc1c(NC(=O)CSc2ncn[nH]2)sc2c1CCCC2 | inconclusive: 18.4 µM [inhibitor, single point] | –
16 | COc1ccc(CN2C[C@H]3CON(C)[C@H]3C[C@H]2c2ccc(-c3ccccc3)cc2)cc1 | inconclusive: 29.1 µM [inhibitor, single point] | –
17 | COc1cccc(C2/C(=C(\O)c3ccc4c(c3)OCCO4)C(=O)C(=O)N2CCCN2CCOCC2)c1OC (stereo not drawn) | inactive | –
18 | CN(C)C(=O)c1ccc2c(c1[N+](=O)[O-])C(=O)c1ccccc1C2=O | active: 5.8 µM | –
19 | Cc1cc(-c2ccc(C(C)C)c(S(=O)(=O)NCCN3CCC(C)CC3)c2)on1 | inconclusive: 20.6 µM [inhibitor, single point] | –
20 | COC(=O)CNC(=O)c1nn(-c2cccc(OC)c2)c(=O)c2ccccc12 | inactive | –
21 | N#Cc1ccccc1OCC(=O)OCC(=O)c1ccc[nH]1 | inactive | –
22 | COCc1c(C(=O)N2CCCC(C)C2)cnn1-c1nccc(-c2cc(C)sc2C)n1 (stereo not drawn) | inactive | –
23 | Cc1c(Cc2ccccc2)c(=O)oc2cc(OCc3ccc(C(=O)O)cc3)ccc12 | inactive | –
24 | Cc1ccc(-n2ncc3c(NNC(=O)c4ccco4)ncnc32)cc1Cl | inconclusive: 29.1 µM [inhibitor, single point] | –
25 | COc1ccccc1CC(=O)Nc1ccc(-c2noc(COc3cccc(C)c3C)n2)cc1 | active: 13 µM | –

Row | Structure (SMILES) | Potency | activity change, negative = growth inhibition
26 | CCOC(=O)C1=C(C)NC(=S)NC1c1ccc(OCC(=O)N2CCCCC2)cc1 (stereo not drawn) | inactive | –
27 | Cc1ccc(NC(=O)COC(=O)CCc2c[nH]c3ccccc23)c(C)c1 | inconclusive: 20.6 µM [inhibitor, partial curve] | –
28 | CC1=C(C(=O)Nc2cccc(C(=O)N3CCC(C(N)=O)CC3)c2)SCCO1 | inactive | –
29 | CC(CCCN1CCCC1)Nc1ccnc2cc(Cl)ccc12 (stereo not drawn) | active: 23.1 µM | –
30 | OC(c1cccnc1)c1ccc2c(c1)CN(Cc1ccc(-c3ccccc3Cl)o1)CCO2 (stereo not drawn) | inconclusive: 23.1 µM [inhibitor, single point] | –
31 | C/C(CC(=O)Nc1ccc([N+](=O)[O-])cc1)=N/NC(=O)C1C2CCCCC21 (stereo not drawn) | inactive | –
32 | OC(c1ccccc1)(c1nc(/C=C/c2ccc(C(F)(F)F)cc2)cs1)C(F)(F)F (stereo not drawn) | active: 23.1 µM | –
33 | Cc1cccc(-c2nsc(SCC(=O)N3CCCC3)n2)c1 | – | inconclusive: -31.7% [inhibitor]
34 | COc1cccc(CNCc2cccc(Br)c2)c1OC | inconclusive: 29.1 µM [inhibitor, single point] | –
35 | Cc1ccc(NC(=O)c2nc[nH]c2C(=O)N[C@@H](C)C(=O)OC(C)(C)C)cc1 | inconclusive: 25.9 µM [inhibitor, single point] | –
36 | Cc1ccc(CN2CCN(Cc3ccncc3)CC2CCO)o1 (stereo not drawn) | – | inconclusive: -23.9% [inhibitor]
37 | COC(=O)N1CCC[C@@]2(CCN(Cc3cc(C(F)(F)F)cc(C(F)(F)F)c3)C2)C1 | inactive | –
38 | CCOc1ccc2c(c1)NC(c1cccs1)=NC(c1ccc(F)cc1)=N2 | inconclusive: 29.1 µM [inhibitor, single point] | –
39 | COc1ccc(OC)c(C2=NOC(C(=O)Nc3cc(C)nn3-c3ccccc3)C2)c1 (stereo not drawn) | inconclusive: 29.1 µM [inhibitor, single point] | –
40 | CN(C)C(CNS(=O)(=O)c1cc([N+](=O)[O-])ccc1Cl)c1ccco1 (stereo not drawn) | inconclusive: 16.4 µM [inhibitor, single point] | –
41 | O=C(/C=C/[C@H]1O[C@@H](n2cnc3c(NC(=O)c4ccccc4)ncnc32)[C@H](O)[C@@H]1O)N[C@@H](CO)Cc1c[nH]c2ccccc12 | inactive | –
42 | O=C(Nc1ccccc1)/C(=C/c1ccc([N+](=O)[O-])cc1)NC(=O)c1ccccc1 | inactive | –
43 | COc1cc(C(C[N+](=O)[O-])c2c(C)[nH]c3ccccc23)ccc1O (stereo not drawn) | inactive | –
44 | FC(F)(F)Oc1ccccc1C(c1nnnn1C1CCCC1)N1CCN(C/C=C/c2ccccc2)CC1 (stereo not drawn) | active: 16.4 µM | –
45 | COc1ccc(C2C(C(=O)Nc3ccc(C)cc3C)=C(C)Nc3nc4ccccc4n32)c(OC)c1 (stereo not drawn) | inconclusive: 14.6 µM [inhibitor, single point] | –
46 | CCOc1ccc(NS(=O)(=O)c2ccc(C(=O)NCC(c3ccco3)N3CCCCC3)cc2)cc1 (stereo not drawn) | inconclusive: 23.1 µM [inhibitor, single point] | –
47 | CC(C)OC(=O)CSc1nnc(C2CCCCC2)n1N | inactive | –
48 | O=C1CSC2(C(=O)N(Cc3ccccc3)c3ccccc32)N1c1ccc(Cl)cc1 (stereo not drawn) | active: 20.6 µM | –
49 | CCOc1cc(S(=O)(=O)N(CC)CC)ccc1Br | inconclusive: 18.4 µM [inhibitor, single point] | –
50 | CCN(c1ccccc1)c1nnc(NC(=O)Nc2ccc(Br)cc2F)s1 | inconclusive: 5.8 µM [inhibitor, partial curve] | –

Row | Structure (SMILES) | Potency | activity change, negative = growth inhibition
51 | COc1ccc(-c2csc(NC(=O)CSc3nnc(Nc4ccccc4C)s3)n2)cc1 | active: 6.51 µM | –
52 | Oc1ccc(Cl)cc1C1=NCCNC(C(F)(F)C(F)F)=C1 | inactive | –
53 | CC(=O)C[C@H](O)CC(=O)[C@H]1OC(=O)[C@@H](C)C/C=C\Cc2ccccc21 | inactive | –
54 | CCCC(=O)NC(=S)Nc1cccc(Cl)c1N1CCCC1 | inconclusive: 25.9 µM [inhibitor, single point] | –
55 | CC(C)(C)c1ccc(C(=O)N2CCCCC2CCN2CCCCC2)cc1 (stereo not drawn) | inconclusive: 18.4 µM [inhibitor, single point] | –
56 | Cc1ccc(Cc2c(C3CCCCC3)nc3c4ccccc4ccn23)cc1 | active: 23.1 µM | –
57 | CC(C)(C)c1ccc(-c2noc(CNC(=O)c3ccco3)n2)cc1 | inconclusive: 18.4 µM [inhibitor, partial curve] | –
58 | COc1ccc(-n2cc(C(=O)c3cc4ccccc4oc3=O)c(C(C)=O)n2)cc1 | inconclusive: 18.4 µM [inhibitor, single point] | –
59 | COc1ccc(NC(=O)Nc2ccc3c(c2)C(=O)N([C@@H](C)CO)C[C@@H](C)[C@@H](CN(C)S(=O)(=O)c2cccs2)O3)cc1 | inconclusive: 29.1 µM [inhibitor, single point] | –
60 | COC(=O)Cn1c(CN2CCN(c3ccc(F)cc3)CC2)nc2c1c(=O)n(C)c(=O)n2C | active: 1.84 µM | –
61 | COc1ccc(S(=O)(=O)n2[nH]c(=O)c(CCO)c2C)c([N+](=O)[O-])c1 | inactive | –
62 | O=C(c1ccco1)N1CCN(C2CN(CCc3ccccc3)S(=O)(=O)C2)CC1 (stereo not drawn) | inconclusive: 18.4 µM [inhibitor, single point] | –
63 | Cc1cnc(C(=O)Nc2ccc(F)cc2)cn1 | inactive | –
64 | O=C(O)c1ccc(-c2nc(-c3ccccc3)c(-c3cccs3)[nH]2)cc1 | inactive | –
65 | CCC(C)NC(=O)C1=CC(c2ccc3c(c2)OCO3)=NS(=O)(=O)N1C (stereo not drawn) | inactive | –
66 | O=C(NCCCN1CCOCC1)c1ccc(Cl)c([N+](=O)[O-])c1 | inactive | –
67 | Cc1ccc(NC(=O)CN2C(=O)NC(C)(C)C2=O)cc1S(=O)(=O)N1CCCCCC1 | inactive | –
68 | COC(=O)c1ccc(Cn2nnc3c(=O)[nH]c(C4CCCN(S(=O)(=O)c5cccc(Cl)c5)C4)nc32)cc1 (stereo not drawn) | inconclusive: 16.4 µM [inhibitor, single point] and inconclusive: 29.1 µM [inhibitor, single point] | –
69 | O=C(C=C1SCCS1)/C=C/c1ccco1 | inconclusive: 29.1 µM [inhibitor, single point] | –
70 | Cc1cc(C(=O)COC(=O)CCCN2C(=O)c3ccccc3C2=O)c(C)n1C | inactive | –
71 | Cc1ccc(/C=C2/NC(=O)N(Cc3ccccc3F)C2=O)s1 | inactive | –
72 | CCNC(=O)COC(=O)c1cc(-c2ccc(OC)cc2)nc2ccccc12 | inconclusive: 1.84 µM [inhibitor, partial curve, poor fit] | –
73 | O=C(CN1C(=O)COc2ccc(S(=O)(=O)Nc3ccccc3)cc21)Nc1cccc(Cl)c1 | inconclusive: 25.9 µM [inhibitor, single point] | –
